According to paper PMC6919601, “Identification of Plasmodium dipeptidyl aminopeptidase allosteric inhibitors by high throughput screening” (PLoS ONE, 2019):
Where “and” joins values, the source holds several entries; their conditions need not be identical. Equal entries are not always repeated. In all, about 110,000 compounds went through this assay and about 230 (0.21%) showed an effect of 50% or more. The list shows a part of the results.

Target: DPAP1 (Plasmodium falciparum, UniProt Q8IIJ9)
Experiment: primary screen, percent inhibition; read by cleavage of a fluorogenic dipeptide substrate; higher = more effect of the substance
Parameters: species or system P. falciparum D10 trophozoite lysates; single well
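Also: 30 min substrate incubation versus DMSO and 10 µM JCP410 controls.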

Sequence of DPAP1 (Q8IIJ9 whole entry, looked up): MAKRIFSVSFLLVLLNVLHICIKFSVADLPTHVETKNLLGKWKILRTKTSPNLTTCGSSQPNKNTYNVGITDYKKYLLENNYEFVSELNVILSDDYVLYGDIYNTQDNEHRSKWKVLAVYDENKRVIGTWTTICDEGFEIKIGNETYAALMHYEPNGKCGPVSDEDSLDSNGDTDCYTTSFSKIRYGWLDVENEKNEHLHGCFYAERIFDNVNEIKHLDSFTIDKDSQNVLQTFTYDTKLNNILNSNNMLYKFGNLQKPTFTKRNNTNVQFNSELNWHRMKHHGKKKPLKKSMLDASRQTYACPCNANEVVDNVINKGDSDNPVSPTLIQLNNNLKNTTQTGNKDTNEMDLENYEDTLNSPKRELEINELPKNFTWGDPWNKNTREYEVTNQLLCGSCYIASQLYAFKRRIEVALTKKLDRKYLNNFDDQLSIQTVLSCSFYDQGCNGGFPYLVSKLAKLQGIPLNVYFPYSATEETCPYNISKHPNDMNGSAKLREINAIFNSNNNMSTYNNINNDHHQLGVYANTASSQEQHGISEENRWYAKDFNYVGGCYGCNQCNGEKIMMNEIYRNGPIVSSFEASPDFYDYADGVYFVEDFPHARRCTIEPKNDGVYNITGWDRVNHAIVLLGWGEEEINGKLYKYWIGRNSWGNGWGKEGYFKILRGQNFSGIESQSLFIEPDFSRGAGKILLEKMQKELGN

SMILES | % Inhibition @ 10 uM
c1ccc2sc(Cc3nn[nH]n3)nc2c1 | 2.28%
CC1CCN(c2nc3c(c(=O)n(C)c(=O)n3C)n2Cc2ccc(Cl)c(Cl)c2)CC1 | 3.6%
O=C(NCCN1CCOCC1)c1noc2c1CCCC2 | -4.02%
CC1(C)CC2=NCN(Cc3ccc4c(c3)OCO4)CC2=C(O)C1 | 0.032%
Cc1cc(C(F)F)n2ncc(C(=O)N3CCOCC3)c2n1 | 0.431%
COc1ccc(C)cc1N(CC(=O)NCc1ccccc1)S(C)(=O)=O | -1.61%
CC1=C(C(=O)Nc2ccc(F)cc2F)C(c2cccs2)C2=C(O)CC(c3ccccc3)CC2=N1 (stereo not shown) | -4.76%
CCN1CCN(C(=O)CCn2cnc3onc(-c4ccc(F)cc4)c3c2=O)CC1 | -1.24%
CCCn1cnc2cc(NCc3nc4ccccc4n3C)ccc21 | -2.67%
COc1ccccc1-c1nc2s/c(=C\c3ccc(OCC(N)=O)cc3)c(=O)n2n1 | 0.561%
COc1ccccc1C(=O)N1CCC2(CC1)N=C(c1ccc(C(C)(C)C)cc1)C(=O)N2 | 8.77%
CC(=O)c1c(C)[nH]c(C(=O)Nc2nccs2)c1C | -0.499%
O[C@]12CCCC[C@@H]1[C@@H](c1ccccc1)NCC2 | 3.32%
COc1cccc(CN2C(=O)c3ccccc3C(C(=O)O)C2c2cccc(OC)c2O)c1 (stereo not shown) | -4.9%
O=C(c1ccccc1)N1CCCC(C(=O)N2CCC(Cc3ccccc3)CC2)C1 (stereo not shown) | -4.84%
O=C(c1ccccc1)C(CN1CCCC1)c1ccccc1 (stereo not shown) | 1.43%
O=C(O)c1ccc(N2C(=O)c3ccc(Br)cc3C2=O)cc1O | -3.13%
CCOc1ccc(C(=O)NCc2cn3cccc(C)c3n2)cc1 | 4.67%
COc1ccc(C2OC(C)CN(C(=O)c3ccc4c(c3)OCO4)O2)cc1 (stereo not shown) | -6.18%
CC1(C)CC(=O)c2c(-c3cccc([N+](=O)[O-])c3)coc2C1 | 2.76%
CCOc1ccc(/C=C2/C=C(c3ccc(CC)cc3)OC2=O)cc1 | 4.74%
COc1ccc(Nc2ncc(C#N)c(Nc3ccccc3)c2C#N)cc1 | 0.67%
COc1ccc(-c2nnc(NC(=O)c3ccc(C(=O)c4ccccc4)cc3)s2)c(OC)c1 | 2.49%
CC(C)(C)c1ccc(CNC23CN4CN(CN(C4)C2)C3)cc1 | -6.36%
O=C1C(=O)N2C(=C1C(=O)N1CCOCC1)c1ccccc1CC21CCCCC1 | -1.52%

SMILES | % Inhibition @ 10 uM
O=C(Nc1ccncc1)C(=O)c1cn(Cc2ccc(Cl)cc2)c2ccccc12 | 3.47%
CCCN(CCC)CC/N=c1/c(N2CCN(C(=O)OCC)CC2)c(O)c1=O | -1.44%
CCOc1ccc(N2C(=O)c3ccccc3C2=O)c(N)c1 | 0.526%
CNC(=O)C1CCCN(S(=O)(=O)N2CCC3(CC2)OCCO3)C1 (stereo not shown) | -5.93%
c1ccc(SC2=NN=C(c3ccccc3)Nc3ccccc32)cc1 | 4.12%
CCOc1cc(C(=O)Nc2ccccc2Br)cc(OCC)c1OCC | 23.6%
Cc1ccc(/C=C(\NC(=O)c2ccccc2)C(=O)NCCc2cccc(F)c2)o1 | 2.46%
Cc1ccc(S(=O)(=O)NCc2nnc(N)s2)cc1 | 12%
Cc1ccccc1S(=O)Cc1ccc(C(=O)N2CCOCC2)o1 (stereo not shown) | -3.09%
Cc1ccc(OCc2nnnn2-c2ccccc2)cc1 | -2.85%
CC1=Nc2ncnn2C(c2ccc(OCc3ccccc3Cl)cc2)/C1=C(\O)OC(C)C (stereo not shown) | 2.25%
COCCCN(C(=O)Nc1cn(CC(C)C)c(=O)c2ccccc12)C(C)c1ccncc1 (stereo not shown) | 3.6%
Cc1ccc(C(=O)N2CC(C)N(C(=O)c3ccc(C)o3)CC2C)o1 (stereo not shown) | -1.42%
CC(C(=O)NCCc1ccc(Cl)cc1)n1c(=O)c2cccn2c2cccnc21 (stereo not shown) | -2.39%
CCCCCC(=O)NC(CC)C(=O)O (stereo not shown) | -3.66% and -1.77%
O=C(Nc1cccc(Cl)c1)Nc1cc(C(F)(F)F)ccc1Cl | 6.08%
Cc1ccc(N2CCN(CCCN3C(=O)C4CCCN4C3=O)CC2)cc1 (stereo not shown) | -3.23%
CCOc1cccc(N2C(=O)CC(N3CCC(C(N)=O)(N4CCCCC4)CC3)C2=O)c1 (stereo not shown) | 1.27%
CCCc1cc(C(=O)NCc2ccc(F)cc2)no1 | -3.77%
COc1ccc(/C=C2/SC(=O)N(CC(=O)Nc3ccccc3C)C2=O)cc1O | 6.52%
COc1ccc(C2(C(N)=O)CCOCC2)cc1 | -7.45%
CCOc1cc(/C=C2/SC(=O)NC2=O)ccc1O | 0.343%
O=S(=O)(c1ccccc1)N1CCC(N2CCCCC2)CC1 | -2.85%
CC(=O)N1CCN(Cc2ccc(F)cc2F)CC1 | -3.8%
COc1cc(C2C(C(=O)c3ccc(F)cc3)=C(O)C(=O)N2c2nncs2)ccc1O (stereo not shown) | -3.98%

SMILES | % Inhibition @ 10 uM
O=C(Nc1ccc(S(=O)(=O)Nc2ccc(F)cc2)cc1)c1cccs1 | -2.8%
CCc1ccc(-c2cn3c(n2)sc2cc(C(=O)NCCN4CCOCC4)ccc23)cc1 | 3.77%
O=C(CN1CCCCC1)N1N=C(c2ccc(Br)cc2)CC1c1nc2ccccc2[nH]1 (stereo not shown) | 8.82%
O=C(O)c1cc2ccccc2c([N+](=O)[O-])c1O | 17.5%
CCN(C(=O)Cc1ccc(OC)cc1)C1CCCCC1 | 0.215%
COc1cc2nc(S)n3nc(COc4ccccc4C)nc3c2cc1OC | 1.23%
COc1ccc(NC(=O)C2(N(Cc3ccccc3)C(=O)Cc3n[nH]c(N)n3)CCCCC2)cc1 | -2.75%
CC(C)c1ccccc1NC(=O)CN1C(=O)C(=O)c2ccccc21 | 0.161%
COc1c(S(=O)(=O)N2CCN(Cc3ccc4c(c3)OCO4)CC2)ccc(Cl)c1Cl | -5.19%
CC(C)(C)OC(=O)NC1c2ccccc2CSc2ccccc21 (stereo not shown) | 0.964%
CN(C)CCCNC1CC2CCC1C2 (stereo not shown) | 1.57%
COc1ccc(C(=O)Nc2ccc(S(=O)(=O)Nc3nccc(C)n3)cc2)cc1 | 0.993%
COCCNC(=O)c1oc2c(c1C)-c1n[nH]cc1CC2 | -1.08%
CCn1cc(CNC(=O)C23CC4CC(CC(C4)C2)C3)cn1 | 0.873%
COc1ccc(OC)c(CN2CCN(C(=O)c3cc(OC)c(OC)c(OC)c3)CC2)c1 | -1.57%
CN1C(=O)C(C2c3ccccc3Oc3c2c(=O)n(C)c(=O)n3C)C(=O)N(C)C1=O (stereo not shown) | 4.15%
CCCOc1cccc(C2c3c(oc4ccccc4c3=O)C(=O)N2Cc2ccc3c(c2)OCO3)c1 (stereo not shown) | 0.415%
CC1CCCC(C)N1CC(O)COc1ccc(N)cc1 (stereo not shown) | 0.385%
CC(/C=C1\N=C(c2ccccc2C)OC1=O)=C\c1ccccc1 | -2.6%
O=C(c1ccco1)N(Cc1cccs1)C1CCS(=O)(=O)C1 (stereo not shown) | -0.622%
CC1=CCC2(CO)COC(c3ccccc3O)C1C2 (stereo not shown) | 1.29%
CC(=O)C1=C(O)C(=O)N(CCCN2CCOCC2)C1c1ccc(Br)cc1 (stereo not shown) | -6.47%
Cc1ccc(C2CC(C(F)(F)F)n3nc(C(=O)N(C)Cc4cnn(C)c4C)cc3N2)cc1 (stereo not shown) | 1.71%
CC1(C)CC(=O)C2=C(C1)N(c1cccnc1)C(N)=C(C#N)C2c1cccs1 (stereo not shown) | -2.77%
Cc1ccc(S(=O)(=O)c2nnn(-c3ccc(Cl)cc3)c2C)cc1 | -0.326%

SMILES | % Inhibition @ 10 uM
CCOc1ccc(-c2nc(C#N)c(NCCCN(CC)CC)o2)cc1 | -3.23%
OC(CNC1CCCCC1)CNC1CCCCC1 | 3.82%
C=CCOc1ccc(C2c3c(-c4ccccc4O)n[nH]c3C(=O)N2CCCOCC)cc1 (stereo not shown) | 6.34%
Oc1ccc(Nc2nc(-c3ccccn3)cs2)cc1 | -1.37%
Cc1ccc(C23CC4CC(CC(CC(=O)N5CCOCC5)(C4)C2)C3)cc1 | -3.12%
COC(=O)c1cc2cc(OC)ccc2[nH]1 | 4.83%
N#Cc1nc(/C=C/c2cccs2)oc1N1CCN(Cc2ccccc2)CC1 | -9.21%
Cc1ccccc1S(=O)(=O)Cc1ccc(C(=O)NCCN2CCCC2)o1 | 2.14%
CCCCSC1=C(C#N)C(=O)NCS1 | 0.0289%
Cc1cccc(C(=O)N2CCN(Cc3ccc4c(c3)OCO4)CC2)c1 | -1.52%
CC1CCN(C(=O)CCc2nc(CN3CCN(C(=O)c4ccc(Br)o4)CC3)no2)CC1 | 5.29%
NC(=O)CSc1nc2c(c(=O)n1Cc1ccccc1)SCC2 | 6.79%
CCCOc1cccc(C(=O)Nc2ccc(C(=O)O)cc2)c1 | 13.1%
Cc1cc(C)c2c(N)c(C(=O)NC(C)c3ccccc3)sc2n1 (stereo not shown) | 0.0289%
COc1cccc(C2NC(=O)NC(c3ccccc3)=C2C(=O)c2ccccc2)c1 (stereo not shown) | -1.37%
O=S(=O)(c1ccccc1)c1cnc2ccccc2c1N1CCN(Cc2ccccc2)CC1 | -9.3%
CCCCN(C)CCNC(=O)c1cc2c(C)nc3ccccc3c2o1 | -5.49%
Cc1ccc2c(=O)c(C(=O)c3cccc(Cl)c3)cn(CC(=O)NCCCc3ccccc3)c2n1 | -3.13%
c1ccc2c(c1)nnn1c3ccccc3nc21 | 1.13%
CC(C)n1c(-c2ccc(C(=O)N3CCN(C)CC3)cc2)nc2ccccc21 | 83.9%
COc1ccc(-c2noc(CNC(=O)c3ccc(C)c(Cl)c3)n2)cc1 | -4.82%
Cc1oc2c(C)c3oc(=O)c(CC(=O)NCc4ccco4)c(C)c3cc2c1-c1ccccc1 | 5.68%
CC(Nc1ccc([N+](=O)[O-])c2cccnc12)c1ccccc1 (stereo not shown) | -1.64%
O=S(=O)(NC1CCN(Cc2ccccc2)CC1)c1ccccc1 | 4.03%
Cn1c2c(c(=O)n(C)c1=O)CN(c1ccc3c(c1)OCCO3)CN2 | -15.4%
